The list shows a part of the results. At the low end of the ranking the order means little.

The assay has as its target SIX1 homeodomain (reference allele) (UniProt Q15475). As to the kind of experiment: universal protein binding microarray. To be noted: Universal all-10-mer PBM (8x60K, AMADID 030236), 300 nM GST-tagged protein, Alexa Fluor 488 anti-GST; buffer, salt, pH and temperature not stated; high values mean tight binding; most listed sequences are background and not binding sites; double strand, one strand shown.
With ACGACGCA, the binding signal was -0.0219 E-score. Next, CCCCTCGG: 0.0987 E-score; CATGCGGA: 0.11 E-score.

With ACTCCGTG, the binding signal was -0.024 E-score. With ACAGGAGC, the binding signal is -0.148 E-score. Take ACGAGTTA: the binding signal is -0.0416 E-score. Regarding TACTTCAA, the binding signal worked out at 0.0978 E-score.

As for CGCCTTAA, the binding signal is -0.013 E-score. Take CCATATTC: the binding signal is 0.0903 E-score. Next, CTTTAACC: -0.18 E-score. ATGGTTAG: the binding signal was -0.00919 E-score. On to AATGTAAT, for which the binding signal was -0.0195 E-score.

As to CCCCAACG, the binding signal was -0.00121 E-score. As to CCATCAAG, the binding signal is -0.179 E-score. For the sequence CGGTTGGC, the binding signal worked out at 0.0734 E-score. CTTCTCGA: the binding signal was -0.164 E-score. Take AAGCAATC: the binding signal is -0.0222 E-score.

As to ATCTGACG, the binding signal is 0.0641 E-score.

Take CAGACAAA: the binding signal is -0.171 E-score. Regarding AAGTGATG, the binding signal turned out to be 0.0598 E-score. For CTTCGCTC, the binding signal was -0.0327 E-score.

Regarding CGGATAAC, the binding signal was found to be 0.339 E-score.

Consider GGATACCC, for which the binding signal turned out to be 0.484 E-score. For the sequence CGGGATTA, the binding signal is 0.263 E-score. In the case of CCACACGA, the binding signal is -0.108 E-score. Next, CTATGGAC: -0.196 E-score; GAGATCGC: 0.27 E-score. Take CGGTTTAC: the binding signal was 0.00887 E-score. AGGAGCAT: the binding signal is -0.206 E-score. For AGGATCGG, the binding signal was found to be 0.32 E-score. As to ACTGAGCC, the binding signal amounted to 0.0866 E-score.

For the sequence CCGTTCGA, the binding signal amounted to 0.0582 E-score. As for TTAAATAA, the binding signal came to 0.0113 E-score. Regarding CCAGTAAA, the binding signal is -0.0212 E-score. Regarding AATGTACG, the binding signal was -0.218 E-score. Under GGGCAAAC stands -0.0994 E-score. Turning to CAGGTTCG, the binding signal is -0.0133 E-score.

With CATATGGG, the binding signal was found to be 0.179 E-score. Take CGTACTTC: the binding signal came out at 0.0949 E-score. Turning to ACAGTAAG, the binding signal was -0.0784 E-score.

Regarding CGAGCACC, the binding signal is -0.0309 E-score. Consider TCCAGAGA, for which the binding signal is -0.0102 E-score. Regarding GAGTAACA, the binding signal is -0.154 E-score. For AGGTATAA, the binding signal was determined as 0.242 E-score.

Regarding GACAGACA, the binding signal is -0.0859 E-score. With GAATTGGC, the binding signal is -0.0893 E-score.

ATAACCTA: the binding signal worked out at 0.0152 E-score. CGGAACCG: the binding signal is -0.186 E-score. For CCATATAG, the binding signal is 0.211 E-score. Under ATTAAAGC stands -0.014 E-score.

Regarding ATCTAAGG, the binding signal amounted to 0.179 E-score. Regarding ACTGGTCT, the binding signal is -0.108 E-score. With AATCCTGG, the binding signal was -0.109 E-score. Regarding AACACTTG, the binding signal is -0.157 E-score. As for CCATGGAC, the binding signal is -0.0519 E-score. As for TCGTCGCA, the binding signal was -0.0806 E-score. Next, CGATTCCC: 0.0811 E-score; AAAGTCTG: -0.29 E-score.

Turning to ACGTGCCT, the binding signal was -0.189 E-score. Next, ACGAGAAT: 0.0373 E-score; CTGTAGCA: -0.212 E-score.

Regarding CCCCTAGG, the binding signal was determined as 0.045 E-score. ATTATTTG: the binding signal was 0.0221 E-score. Regarding TAGGGTGA, the binding signal worked out at 0.0709 E-score. With ATGTATGA, the binding signal was found to be 0.261 E-score. In the case of CTGTGACA, the binding signal is -0.0932 E-score. With GCCAAGAC, the binding signal is -0.193 E-score. Next, AATGTGGT: -0.0608 E-score. Turning to CTGCGCAA, the binding signal is -0.153 E-score. Under ACCGAAAT stands -0.0348 E-score; under CACTAACC, -0.186 E-score. On to GTGTTAAA, for which the binding signal was 0.0247 E-score.

Take AAAGCGGG: the binding signal was -0.231 E-score. Under ACTTGATA stands 0.374 E-score. As to AATTAGGC, the binding signal is -0.158 E-score. Turning to CGTTTGGA, the binding signal is -0.0757 E-score. Next, ACCGGGCT: -0.0186 E-score; CCAGTTTA: -0.0101 E-score; TGTGCTAA: -0.124 E-score. For the sequence CACTCTCC, the binding signal was -0.00602 E-score. For AACCTAAG, the binding signal is -0.186 E-score. Turning to CGGCGGGC, the binding signal was -0.00443 E-score. For GACCTGGA, the binding signal was -0.11 E-score. CGCGAAGA: the binding signal was -0.128 E-score. Take ACTCGTGC: the binding signal was -0.114 E-score. For AGATGTAT, the binding signal was 0.338 E-score. Consider ATTGATGG, for which the binding signal was -0.0372 E-score. For the sequence CCAACAAG, the binding signal was -0.211 E-score.

For CCGCTCCA, the binding signal was 0.013 E-score. On to CGCCGCCG, for which the binding signal is -0.219 E-score.

In the case of AGTCCCCA, the binding signal is -0.142 E-score.

Turning to CTTGATAA, the binding signal came out at 0.0645 E-score. For the sequence AGGGAAAG, the binding signal is -0.0705 E-score. On to GCCACGGA, for which the binding signal was 0.0257 E-score. Consider GTGAGCTA, for which the binding signal was found to be 0.0498 E-score. As for AACGCATC, the binding signal was -0.0661 E-score. Take AAGCGGAT: the binding signal amounted to 0.306 E-score. For the sequence AGGGCTAA, the binding signal is -0.0541 E-score. Next, CAAGTGAA: -0.106 E-score; GGCGGGAC: -0.236 E-score; AGCGGTGA: -0.129 E-score.

Consider TATTCGAA, for which the binding signal is -0.0987 E-score.

Regarding CGGTTATA, the binding signal was 0.135 E-score. On to AACAATAA, for which the binding signal is -0.085 E-score. Under ATGCGTAA stands -0.136 E-score. As for ACTTCTTG, the binding signal was -0.0674 E-score. Turning to TAATAGCA, the binding signal is 0.0353 E-score. Under GCGCGCAA stands -0.0161 E-score. As for TGTGCAAA, the binding signal is -0.306 E-score. Take CTCGTGCA: the binding signal came to 0.0718 E-score. Regarding ACTTTGAA, the binding signal was -0.281 E-score. Regarding TATGTGGA, the binding signal was -0.0388 E-score. With AGCTCCAG, the binding signal is -0.131 E-score. For CATGTTCG, the binding signal was -0.121 E-score. As for AATTGTAG, the binding signal was -0.169 E-score. For CGTCATCC, the binding signal stood at 0.13 E-score. Regarding CGTCTAGA, the binding signal was determined as 0.0754 E-score. Consider GATATGAC, for which the binding signal was determined as 0.357 E-score. On to GATAGATC, for which the binding signal stood at 0.347 E-score. Regarding AAGACGTA, the binding signal is -0.00305 E-score. In the case of CTCATCTC, the binding signal was found to be 0.158 E-score. Take CACGGTTA: the binding signal is -0.141 E-score.

As for GATCGCAC, the binding signal came out at 0.253 E-score.

On to GGACTTAA, for which the binding signal is -0.175 E-score. Consider ATTGAGCA, for which the binding signal is -0.04 E-score. With AGAGTTGC, the binding signal turned out to be 0.0823 E-score. With GGGCCGTA, the binding signal worked out at 0.15 E-score. On to CAGATCGG, for which the binding signal worked out at 0.296 E-score. As for CAGTGACA, the binding signal amounted to 0.0801 E-score. Take GCCACCAC: the binding signal is -0.165 E-score. Regarding CCGATCCC, the binding signal was found to be 0.412 E-score. Under CAGCTTGC stands -0.231 E-score. Next, ATTCTCGA: -0.000975 E-score; ACTTGAAC: -0.0757 E-score; CCGCGAGG: 0.126 E-score.

As to AATATAGG, the binding signal worked out at 0.0555 E-score.

Take CGACTACG: the binding signal is -0.245 E-score. For CGAAGGGC, the binding signal is -0.076 E-score. Turning to AGAGCTCA, the binding signal is -0.0753 E-score.

As to CCTGGATC, the binding signal was determined as 0.251 E-score. As to CTTCAGTA, the binding signal turned out to be 0.0153 E-score. Take CCGATCAC: the binding signal worked out at 0.346 E-score. As for GGGTTAGA, the binding signal is 0.16 E-score. Under CCGTTTCG stands -0.167 E-score; under AGGCGTAG, -0.12 E-score; under GCCCGGGA, 0.144 E-score. With GGCGCCTA, the binding signal was -0.233 E-score.

Regarding CCAAGCCG, the binding signal came out at 0.114 E-score.

On to ATACGCTC, for which the binding signal worked out at 0.245 E-score. As to ATTCGCTC, the binding signal is -0.139 E-score. As for CTGACCGA, the binding signal was determined as 0.0848 E-score. Under CTCACATA stands 0.065 E-score; under ATGAATCG, 0.0185 E-score.

Take CTGGACAC: the binding signal worked out at 0.0465 E-score. Regarding TATAGCCA, the binding signal was found to be 0.224 E-score. As to CCCCTTAA, the binding signal was -0.0594 E-score. For the sequence GAAGCTAC, the binding signal was -0.139 E-score.

Regarding TGTCAACA, the binding signal stood at 0.00955 E-score. For AAGTCATT, the binding signal is -0.348 E-score. In the case of GAATATCC, the binding signal was determined as 0.276 E-score. In the case of CTCCCGCC, the binding signal was -0.158 E-score.

For ACGGTCGG, the binding signal was -0.0321 E-score.

As for GCTGTACA, the binding signal is -0.107 E-score. Regarding AGGGACGG, the binding signal was -0.0874 E-score. For the sequence GTTGCCCA, the binding signal was -0.15 E-score. Take CAACTTAC: the binding signal was -0.118 E-score.

AGTCTTTA: the binding signal is -0.347 E-score. Consider CCGAGAAC, for which the binding signal is -0.0412 E-score.

For the sequence ACGCGCAC, the binding signal is -0.219 E-score. For the sequence ATTATAAC, the binding signal was 0.0311 E-score. Under GAAGGCGA stands -0.114 E-score.

Regarding AGATACCA, the binding signal came out at 0.422 E-score.

The values above are taken from PMC10668032.
